Experimental data as given in the RNAGym collection of RNA variant scans (doi:10.1073/pnas.2313332121).
Variants at the background level are over-represented here.

B1: TPR 5TU (parent)
chain: GGAUCUUCUCGAUCUAACAAAAAAGACAAAUCUGCCACAAAGCUUGAGAGCAUCUUCGGAUGCAGAGGCGGCAGCCUUCGGUGGCGCGAUAGCGCCAACGUUCUCAACUAUGACACGCAAAACGCGUGCUCCGUUGAAUGGAGUUUAUCAUG

Variants of: B1
Assay: polymerase ribozyme fitness, log enrichment relative to wild type (log ratio); higher = more active; in vitro selection for triplet polymerase activity
In short: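 Fitness measures genotype enrichment against wild-type enrichment on a logarithmic scale, with inverse-variance-weighted averaging of replicates. The logarithm is base 2, and genotypes were kept only with ≥10 input reads and ≥1 read per output in Illumina sequencing. The sequenced libraries came from one triplicate in vitro selection round, including frozen incubation at −7 °C, of PCR-built, transcribed mutant libraries of each subunit of a heterodimeric triplet polymerase ribozyme.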
With C27G U44A C95G U104G C116G the “polymerase ribozyme fitness (log ratio)” value was ≤ -4.2.
In the case of A26U C27U A39G G80A A91G G92C, the “polymerase ribozyme fitness (log ratio)” value is reported as ≤ -4.2.
For C27U U55A G70C A91U A97U A106G, the “polymerase ribozyme fitness (log ratio)” value was ≤ -4.2.
In the case of C27A U55A G71A U77C C95U A113C C149G, the “polymerase ribozyme fitness (log ratio)” value is reported as ≤ -4.2.
With C27A G50A G68A A142C the “polymerase ribozyme fitness (log ratio)” value was ≤ -4.2.
For C27U U53A G80U C87G A121U, the “polymerase ribozyme fitness (log ratio)” value was ≤ -4.2.
For A28G G46A C85A A91G, the “polymerase ribozyme fitness (log ratio)” value was ≤ -4.2.
For C27U C57A C87A A115U, the “polymerase ribozyme fitness (log ratio)” value was ≤ -4.2.
In the case of C27A C36U A47C G59U C79A G94U, the “polymerase ribozyme fitness (log ratio)” value is reported as ≤ -4.2.
For C27G A28G A89U A91C, the “polymerase ribozyme fitness (log ratio)” value was ≤ -4.2.
For C27G C54U U61A C95U A97C A137C, the “polymerase ribozyme fitness (log ratio)” value was ≤ -4.2.
In the case of C27U A37C G59A U77C C87U U90G A137U, the “polymerase ribozyme fitness (log ratio)” value is reported as ≤ -4.2.
In the case of A26G U33C C54U G88A C99G G117A, the “polymerase ribozyme fitness (log ratio)” value is reported as ≤ -4.2.
With A26U A30G C38U G71C the “polymerase ribozyme fitness (log ratio)” value was ≤ -4.2.
In the case of A26G G83A G141C, the “polymerase ribozyme fitness (log ratio)” value is reported as ≤ -4.2.
For A26U C36G U55A G58C C105U, the “polymerase ribozyme fitness (log ratio)” value was ≤ -4.2.
For A26G G67A U78C G80A C93A C114U A120U, the “polymerase ribozyme fitness (log ratio)” value was ≤ -4.2.
For A26U C85U A115G, the “polymerase ribozyme fitness (log ratio)” value was -3.36.
In the case of C27G C36A C38U A49G C79U C87U A142U, the “polymerase ribozyme fitness (log ratio)” value is reported as ≤ -4.2.
With A28G C54G U56A A60C C85U G86A C105A C118G G124A G140A U144C U145G A147U A150C the “polymerase ribozyme fitness (log ratio)” value was ≤ -4.2.
With A26G G42C U78A C87G U111G U146G U151C the “polymerase ribozyme fitness (log ratio)” value was ≤ -4.2.
With A26U G59C G88U A97C C108U C116G the “polymerase ribozyme fitness (log ratio)” value was ≤ -4.2.
With A26U A49U U55G C57U A64U C76A G92U C96U A98C C123A A142G the “polymerase ribozyme fitness (log ratio)” value was ≤ -4.2.
In the case of A28G A107G U144C, the “polymerase ribozyme fitness (log ratio)” value is reported as ≤ -4.2.
In the case of A28G G48U G50C G94A C96G A110G, the “polymerase ribozyme fitness (log ratio)” value is reported as ≤ -4.2.
In the case of A26U G34A A47C C96A C116G G136A, the “polymerase ribozyme fitness (log ratio)” value is reported as ≤ -4.2.
With C27U G48A G128A the “polymerase ribozyme fitness (log ratio)” value was ≤ -4.2.
For C27U A52U G65A C75A A115C, the “polymerase ribozyme fitness (log ratio)” value was ≤ -4.2.
With C27U C57A A66C G71A C96A U130A the “polymerase ribozyme fitness (log ratio)” value was ≤ -4.2.
For A28C A60G A110U, the “polymerase ribozyme fitness (log ratio)” value was ≤ -4.2.
With A26U G84U C87A C116U the “polymerase ribozyme fitness (log ratio)” value was ≤ -4.2.
In the case of A28C G68U C76A U77C G80A, the “polymerase ribozyme fitness (log ratio)” value is reported as ≤ -4.2.
In the case of C27U A29U U144C, the “polymerase ribozyme fitness (log ratio)” value is reported as ≤ -4.2.
With C27U C43A A97U A150G the “polymerase ribozyme fitness (log ratio)” value was ≤ -4.2.
In the case of A26G U53A U101G U130A, the “polymerase ribozyme fitness (log ratio)” value is reported as ≤ -4.2.
With C27U U53A G67U C87G the “polymerase ribozyme fitness (log ratio)” value was ≤ -4.2.
For A26U C93U A122U, the “polymerase ribozyme fitness (log ratio)” value was -2.76.
With C27U A37U C99G the “polymerase ribozyme fitness (log ratio)” value was -3.64.
For A26U A40C A142C, the “polymerase ribozyme fitness (log ratio)” value was ≤ -4.2.
With C27A A49C U55G C75U G84A the “polymerase ribozyme fitness (log ratio)” value was ≤ -4.2.
With C27G C54U C72U U146C the “polymerase ribozyme fitness (log ratio)” value was ≤ -4.2.
In the case of A28G A29C C54U A60C U61C G68C C93U, the “polymerase ribozyme fitness (log ratio)” value is reported as ≤ -4.2.
In the case of C27A G58U C95U C96A G124U, the “polymerase ribozyme fitness (log ratio)” value is reported as -4.08.
In the case of A26U U31G C85A A89G, the “polymerase ribozyme fitness (log ratio)” value is reported as ≤ -4.2.
For A26U C51U G58C, the “polymerase ribozyme fitness (log ratio)” value was -2.08.
With C27U A40U U61G G67C U78G C116U the “polymerase ribozyme fitness (log ratio)” value was ≤ -4.2.
In the case of A28C A52U U55G C87G C125U G152A, the “polymerase ribozyme fitness (log ratio)” value is reported as ≤ -4.2.
For C27G C93U U130G U151A, the “polymerase ribozyme fitness (log ratio)” value was ≤ -4.2.
For C27G A40C G58U U61A G62A C87A A121C, the “polymerase ribozyme fitness (log ratio)” value was ≤ -4.2.
With A26U C38U C51G A73G G83C the “polymerase ribozyme fitness (log ratio)” value was ≤ -4.2.
In the case of A26U U53G G83A C118G U135C, the “polymerase ribozyme fitness (log ratio)” value is reported as ≤ -4.2.
With C27A A28C C57G C76A A91C the “polymerase ribozyme fitness (log ratio)” value was ≤ -4.2.
For A26G G34U C87A A89U, the “polymerase ribozyme fitness (log ratio)” value was ≤ -4.2.
In the case of A28C C32U A39C G46C U53A C96U A122G A137G, the “polymerase ribozyme fitness (log ratio)” value is reported as ≤ -4.2.
In the case of C27U G92U, the “polymerase ribozyme fitness (log ratio)” value is reported as -1.78.
With A26U A49G C95U the “polymerase ribozyme fitness (log ratio)” value was -3.28.
With C27U G84A the “polymerase ribozyme fitness (log ratio)” value was -1.66.
In the case of C27G U56A G83A A115C G140A, the “polymerase ribozyme fitness (log ratio)” value is reported as ≤ -4.2.
In the case of C27G A41G C85G, the “polymerase ribozyme fitness (log ratio)” value is reported as ≤ -4.2.
With C27U A28G A60G A98U G100A U135G the “polymerase ribozyme fitness (log ratio)” value was ≤ -4.2.
For C27U C54U C69A C76U G83A, the “polymerase ribozyme fitness (log ratio)” value was ≤ -4.2.
For A28C A106G C129G U151C, the “polymerase ribozyme fitness (log ratio)” value was ≤ -4.2.
In the case of C27G C38U A49G G71A G94C U145C, the “polymerase ribozyme fitness (log ratio)” value is reported as ≤ -4.2.
In the case of A28G C38U C103A G152A, the “polymerase ribozyme fitness (log ratio)” value is reported as ≤ -4.2.
For A26U A29C G124U, the “polymerase ribozyme fitness (log ratio)” value was ≤ -4.2.
For A28C U61A C96G U104G G128C G143C, the “polymerase ribozyme fitness (log ratio)” value was ≤ -4.2.
For C27U U33G G68C C69U C76U C95A C103U A110C G133A U139G, the “polymerase ribozyme fitness (log ratio)” value was ≤ -4.2.
In the case of A28C C38U G70C A142U, the “polymerase ribozyme fitness (log ratio)” value is reported as ≤ -4.2.
For A26U C27U G83A G117C C123G G126A C149A, the “polymerase ribozyme fitness (log ratio)” value was ≤ -4.2.
With A28U A40C C75G C87A C95U C105G A121U the “polymerase ribozyme fitness (log ratio)” value was ≤ -4.2.
For A28G U45A C103G A122U C123U, the “polymerase ribozyme fitness (log ratio)” value was ≤ -4.2.
With C27G G94C G136U the “polymerase ribozyme fitness (log ratio)” value was ≤ -4.2.
For C27A G42U U102G G133C, the “polymerase ribozyme fitness (log ratio)” value was ≤ -4.2.
In the case of A28G C93U C105G, the “polymerase ribozyme fitness (log ratio)” value is reported as ≤ -4.2.
With C27A G50A C57G G59U G65C the “polymerase ribozyme fitness (log ratio)” value was ≤ -4.2.
In the case of C27G A30C A47U G83C C116G G124C G143C, the “polymerase ribozyme fitness (log ratio)” value is reported as ≤ -4.2.
In the case of C27U C76U, the “polymerase ribozyme fitness (log ratio)” value is reported as -1.42.
In the case of A28G C38U U55A C57U G94C A106G C123A, the “polymerase ribozyme fitness (log ratio)” value is reported as ≤ -4.2.
In the case of A26U A28C A52C G58A U139G A147C, the “polymerase ribozyme fitness (log ratio)” value is reported as ≤ -4.2.
With C27U A47U C76A C85U C108U G128C the “polymerase ribozyme fitness (log ratio)” value was ≤ -4.2.
With A28C C57U G74A C103U A113U the “polymerase ribozyme fitness (log ratio)” value was ≤ -4.2.
With A28G C54U U90C G94A C131U the “polymerase ribozyme fitness (log ratio)” value was ≤ -4.2.
In the case of A26U G50C C85G C95A C96U, the “polymerase ribozyme fitness (log ratio)” value is reported as ≤ -4.2.
With C27G C38U A39G A73C G94U U146C G152U the “polymerase ribozyme fitness (log ratio)” value was ≤ -4.2.
